Results from the supplement of paper PMC6135742.
Where “and” joins values, the source holds several entries; their conditions need not be identical. Identical values can stand only once. Counter-ions that a name gives are not always drawn. ± gives the standard deviation of the averaged measurements. Over roughly 2,600 compounds, “total cell number (DAPI+ nuclei) relative to DMSO vehicle control” has its median near -1.4; the lowest 2% begin near -23. The list shows a part of the results.

The compounds below were run on jimpy (Plp1 jimpy) mouse iPSC-derived oligodendrocyte progenitor cells (assay: total cell number (DAPI+ nuclei) relative to DMSO vehicle control (SDs above negative control mean); higher = more surviving cells). Details: 10 µM; 3 days.

Structure (SMILES)	total cell number
O=C(/C=C/c1ccc(O)c(O)c1)OCCc1ccccc1 [Caffeic acid phenethyl ester]	-9.73
O=C(/C=C/c1ccc(O)c(O)c1)OCCc1ccccc1 [Caffeic Acid Phenethyl Ester]	-11.9
C=CC(=O)Nc1cccc(Oc2nc(Nc3ccc(N4CCN(C)CC4)cc3OC)ncc2Cl)c1	-24.9
COc1ccc([C@@H]2CC(=O)c3c(O)cc(O[C@@H]4O[C@H](CO)[C@@H](O)[C@H](O)[C@H]4O[C@@H]4O[C@@H](C)[C@H](O)[C@@H](O)[C@H]4O)cc3O2)cc1O [Neohesperidin]	-0.222
CC(=O)OCC(CCn1cnc2cnc(N)nc21)COC(C)=O [Famciclovir]	-0.473 ± 1.5
NNc1nncc2ccccc12 [Hydralazine HCl]	-0.661
NNc1nncc2ccccc12 [Hydralazine hydrochloride]	-0.483
CC[C@H](C)C(=O)O[C@H]1CCC=C2C=C[C@H](C)[C@H](CC[C@@H]3C[C@@H](O)CC(=O)O3)[C@H]21 [Mevastatin]	-6.13 ± 1.6
Nc1cc(C(Cl)=C(Cl)Cl)c(S(N)(=O)=O)cc1S(N)(=O)=O [Clorsulon]	-0.558
Nc1nc2ccc(Cl)cc2c2nc(-c3ccco3)nn12	0.464
CCC(C)N(C)C(=O)c1cc2ccccc2c(-c2ccccc2Cl)n1 (stereo not drawn)	-1.57
C[C@@H]1CCN(C(=O)CC#N)C[C@@H]1N(C)c1ncnc2[nH]ccc12	-2.49 and -3.98
CCOC(=O)Nc1cc(-c2ccc(C)c(NS(C)(=O)=O)c2)nn2c(C)nnc12 [Bromosporine]	-13.2
Cc1cc2c(F)c(Oc3ncnn4cc(OC[C@@H](C)OC(=O)[C@H](C)N)c(C)c34)ccc2[nH]1	-4.11
O=c1[nH]c(=O)n(C2CCCO2)cc1F (stereo not drawn) [Tegafur]	-9.13
COc1ccc([C@]2(C#N)CC[C@@H](C(=O)O)CC2)cc1OC1CCCC1 [Cilomilast]	-0.987
Nc1ncnc2c1c(-c1ccc(Oc3ccccc3)cc1)cn2C1CCCC1	-5.56
COCC[n+]1c2c(n(Cc3cnccn3)c1C)C(=O)c1ccccc1C2=O [YM155 (Sepantronium Bromide)]	-27.7
O=C(NCCO)c1cccc(-c2cc(Nc3ccc(OC(F)(F)F)cc3)ncn2)c1	-2.65
O=S(=O)(O)NC1CCCCC1 [Cyclamic  acid]	-1.78
O=C1c2ccc(Nc3ccc(F)cc3F)cc2CCc2ccc(OC[C@H](O)CO)cc21 [Skepinone-L]	-0.735
NC(=O)C(c1ccccc1)(c1ccccc1)[C@@H]1CCN(CCc2ccc3c(c2)CCO3)C1 [Darifenacin HBr]	-6.77
CCCNCC(O)COc1ccccc1C(=O)CCc1ccccc1 (stereo not drawn) [Propafenone HCl]	-0.28
CCCNCC(O)COc1ccccc1C(=O)CCc1ccccc1 (stereo not drawn) [Propafenone hydrochloride]	-2.01
COc1cc([C@@H]2c3cc4c(cc3[C@@H](O[C@@H]3O[C@@H]5CO[C@@H](C)O[C@H]5[C@H](O)[C@H]3O)[C@H]3COC(=O)[C@H]23)OCO4)cc(OC)c1O [Etoposide]	-15.2 ± 8.5
COc1cc(/C=C(\C#N)C(=O)Nc2nnc(C(F)(F)F)s2)ccc1OCc1ccc(C(F)(F)F)cc1C(F)(F)F	-0.657

Structure (SMILES)	total cell number
O=[N+]([O-])c1cccc2cn[nH]c12 [7-Nitroindazole]	-1.22
COc1ccccc1OCC(O)CN1CCN(CC(=O)Nc2c(C)cccc2C)CC1 (stereo not drawn) [Ranolazine]	0.205
COc1ccccc1OCC(O)CN1CCN(CC(=O)Nc2c(C)cccc2C)CC1 (stereo not drawn) [Ranolazine 2HCl]	0.63
COc1ccccc1OCC(O)CN1CCN(CC(=O)Nc2c(C)cccc2C)CC1 (stereo not drawn) [Ranolazine dihydrochloride]	-1.32
C[C@H]1C[C@@H]2[C@H]([C@@H](O)C[C@@]3(C)[C@H]2CC[C@]3(O)C(=O)CO)[C@@]2(C)C=CC(=O)C=C12 [Methylprednisolone]	5.96
COc1cc2c(Oc3ccc4[nH]c(C)cc4c3F)ncnc2cc1OCCCN1CCCC1 [Cediranib (AZD2171)]	-26.9
CC(=O)O[C@]1(C(C)=O)CC[C@H]2[C@@H]3C[C@H](C)C4=CC(=O)CC[C@]4(C)[C@H]3CC[C@@]21C [Medroxyprogesterone acetate]	6.72
O=C(O)c1cc(-c2ccccc2)nc2ccccc12 [Cinchophen]	1.06
Nc1nc2c(nc(Br)n2C2OC3COP(=O)(O)O[C@@H]3C2O)c(=O)[nH]1 (stereo partly drawn) [8-Bromo-cGMP sodium]	-3.71
Nc1nc2n[nH]nc2c(=O)[nH]1 [Azaguanine-8]	-0.157
COc1cc2c(cc1-c1c(C)noc1C)ncc1[nH]c(=O)n([C@H](C)c3ccccn3)c12	-7.07 and -7.8
CN(C)c1nc(N(C)C)nc(N(C)C)n1 [Altretamine]	-0.0239 ± 0.24
N[C@H](C(=O)O)[C@H](O)c1ccc(O)c(O)c1	-1.4
CCOC(=O)[C@H](CCc1ccccc1)N[C@H]1CS[C@H](c2cccs2)CN(CC(=O)O)C1=O [Temocapril HCl]	1.77
CCCCC(F)(F)[C@@]1(O)CC[C@H]2[C@@H](CC(=O)[C@@H]2CCCCCCC(=O)O)O1 [Lubiprostone]	7.06
COc1ccc(F)c(F)c1C(=O)c1cnc(NC2CCN(S(C)(=O)=O)CC2)nc1N	-11.6
O=S(=O)(O)c1cc(O)ccc1O [Ethamsylate]	-1.12
CC(C)C[C@H](NP(=O)(O)O[C@H]1O[C@H](C)[C@@H](O)[C@H](O)[C@@H]1O)C(=O)N[C@@H](Cc1c[nH]c2ccccc12)C(=O)O [Phosphoramidon disodium]	-1.28
CCC(=O)O[C@]1(C(=O)CCl)[C@@H](C)C[C@H]2[C@@H]3CCC4=CC(=O)C=C[C@]4(C)[C@@]3(F)[C@@H](O)C[C@@]21C [Clobetasol propionate]	6.81
O=C1C[C@@H](c2ccc(O)cc2)Oc2cc(O)cc(O)c21 [Naringenin]	-0.134
CC(=O)Nc1nc(C)c(-c2ccc(Cl)c(S(=O)(=O)NCCO)c2)s1	-15.8
CC(/C=C/c1cccc(Oc2ccc(F)cc2)c1)N(O)C(N)=O (stereo not drawn)	-3.01
O=c1c(O)c(-c2ccc(O)cc2O)oc2cc(O)cc(O)c12 [Morin]	-2.03
O=c1c(O)c(-c2ccc(O)cc2O)oc2cc(O)cc(O)c12 [Morin Hydrate]	0.628
COc1ccc(C2CNC(=O)C2)cc1OC1CCCC1 (stereo not drawn) [Rolipram]	-1.19 ± 0.055
OC[C@H]1O[C@@H](Oc2cc(O)cc(/C=C/c3ccc(O)cc3)c2)[C@H](O)[C@@H](O)[C@@H]1O [Polydatin]	-3.83

Structure (SMILES)	total cell number
CCCCCCCCCCCCCCCC(=O)O[C@@H]1[C@@H](O)[C@@H](O)[C@@H]([C@H](NC(=O)[C@@H]2C[C@@H](CCC)CN2C)[C@H](C)Cl)O[C@@H]1SC [Clindamycin palmitate HCl]	-2.86
O=C(O)C1=CCCNC1 [Guvacine hydrochloride]	-0.544
CC(=O)Nc1ncc([N+](=O)[O-])s1 [Nithiamide]	-1.51
O=C(NOCC1CC1)c1cc(Br)c(F)c(F)c1Nc1ccc(I)cc1Cl	-4.21
Nc1ncnc2c1nc(Sc1ccc(Cl)cc1)n2C1OC2COP(=O)(O)O[C@@H]2[C@@H]1O (stereo partly drawn) [8-(4-Chlorophenylthio)-cAMP sodium]	-2.6
CCC(=O)c1c(O)cc(O)cc1O [Flopropione]	3.54
C=CC(=O)Nc1ccc2ncnc(Nc3cccc(Br)c3)c2c1	-13.1
CC(C)(C)[C@]1(O)CCN2C[C@H]3c4ccccc4CCc4cccc(c43)[C@@H]2C1 (racemic) [(±)-Butaclamol hydrochloride]	-0.0241
CC(C)(C)[C@]1(O)CCN2C[C@H]3c4ccccc4CCc4cccc(c43)[C@@H]2C1 [(+)-Butaclamol hydrochloride]	-2.89
Nc1nc2[nH]c(=O)cnc2c(=O)[nH]1 [Isoxanthopterin]	-0.472
CO/N=C(\C(=O)N[C@@H]1C(=O)N2C(C(=O)O)=C(Cn3ccc(=N)n3CCO)CS[C@H]12)c1csc(N)n1 [Cefoselis Sulfate]	0.253
CC1Cc2ccccc2N1NC(=O)c1ccc(Cl)c(S(N)(=O)=O)c1 (stereo not drawn) [Indapamide]	1.96
CCOCC(O)COc1ccc(NC(=O)CC[S+](C)C)cc1 (stereo not drawn) [Suplatast Tosylate]	-1.08
Nc1ccc(S(=O)(=O)Nc2ccnn2-c2ccccc2)cc1 [Sulfaphenazole]	-2.31
CN1CCN(CCOc2cc(OC3CCOCC3)c3c(Nc4c(Cl)ccc5c4OCO5)ncnc3c2)CC1 [Saracatinib (AZD0530)]	-22.8
O=C(/C=C/c1ccc(CN(CCO)CCc2c[nH]c3ccccc23)cc1)NO [LAQ824 (Dacinostat)]	-17.2
CC(C)(C)c1ccc(-c2nc3ccccc3[nH]2)cc1	3.6
C=CCN1CCc2c(cc(O)c(O)c2Br)[C@@H](c2ccccc2)C1 [R(+)-6-Bromo-APB hydrobromide]	-7.92
Cc1cccc(C#Cc2ccccc2)n1 [6-Methyl-2-(phenylethynyl)pyridine hydrochloride]	-2.25
c1ccc(C(NCc2cccnc2)(c2ccccc2)c2ccccc2)cc1	-1.31
N[C@H](C(=O)O)c1cc(O)cc(O)c1 [(S)-3,5-Dihydroxyphenylglycine]	2.98
O=c1cc[nH]c(=S)[nH]1 [2-Thiouracil]	-0.0444
Cc1cc(C)c(/C=C2\C(=O)Nc3ccccc32)[nH]1	-3.96
Cc1cc(C)c(/C=C2\C(=O)Nc3ccccc32)[nH]1 [Semaxanib (SU5416)]	-1.49
O=C(NOC[C@H](O)CO)c1ccc(F)c(F)c1Nc1ccc(I)cc1F	-6.84 and -15.1
CC(C)c1cc(-c2ccc(F)c3ccccc23)nc(N)n1	0.518
